Source: PubChem BioAssay AID488969 (Vanderbilt High Throughput Screening Facility, 2010)
Over roughly 110,000 compounds, “z-score” has its median near -0.1; the highest 2% begin near 2. This is one part of the list. Active and inactive are the calls of the source.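 Rule for the calls: active = z-score in the third read window above 3 or below -3; inactive = the rest.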

target: Metabotropic glutamate receptor 8 (Rattus norvegicus) (UniProt P70579); test: rat mGluR8 modulators via GIRK flux, primary screen, cell-based, thallium flux, HTS (AID 488969); settings: HEK293 rat mGluR8, GIRK (G protein-gated inwardly rectifying potassium channel) thallium flux, FluoZin2; at 10 µM; stronger effect = higher value; submaximal glutamate (EC20) added with thallium
UniProt P70579, sequence (P70579 whole entry, looked up): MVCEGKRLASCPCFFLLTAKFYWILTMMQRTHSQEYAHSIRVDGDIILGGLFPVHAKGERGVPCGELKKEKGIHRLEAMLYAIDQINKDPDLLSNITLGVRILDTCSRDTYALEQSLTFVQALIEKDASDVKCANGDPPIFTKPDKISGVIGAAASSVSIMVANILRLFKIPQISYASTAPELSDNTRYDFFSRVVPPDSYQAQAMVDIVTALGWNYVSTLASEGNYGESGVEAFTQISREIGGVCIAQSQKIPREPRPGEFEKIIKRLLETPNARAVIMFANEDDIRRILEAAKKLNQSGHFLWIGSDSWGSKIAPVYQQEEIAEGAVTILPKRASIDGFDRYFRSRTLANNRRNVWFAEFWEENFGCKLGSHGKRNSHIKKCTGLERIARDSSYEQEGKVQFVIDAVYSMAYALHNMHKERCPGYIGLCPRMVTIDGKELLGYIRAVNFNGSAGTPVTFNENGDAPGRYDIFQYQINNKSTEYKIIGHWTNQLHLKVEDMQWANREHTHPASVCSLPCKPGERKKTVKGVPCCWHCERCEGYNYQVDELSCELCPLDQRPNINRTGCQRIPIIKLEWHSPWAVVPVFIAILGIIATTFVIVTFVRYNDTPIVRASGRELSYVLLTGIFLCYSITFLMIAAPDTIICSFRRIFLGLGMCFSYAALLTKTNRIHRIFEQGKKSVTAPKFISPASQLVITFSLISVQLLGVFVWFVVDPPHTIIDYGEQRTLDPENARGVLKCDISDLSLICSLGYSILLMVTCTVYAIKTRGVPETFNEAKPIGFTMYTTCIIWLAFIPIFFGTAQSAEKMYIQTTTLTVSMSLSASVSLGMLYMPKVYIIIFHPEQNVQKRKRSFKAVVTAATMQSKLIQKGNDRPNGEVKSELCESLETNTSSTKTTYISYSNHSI

Q: For `C=COCCNC(=O)C1CC(=O)N(c2ccc(C)cc2)C1` (centres undefined), which z-score is on record?
A: 1.08

Q: How did the z-score turn out when `C/C(=N\NC(=O)COc1ccccc1)c1cccs1` was run?
A: -0.019

Q: How did the z-score turn out when `Cc1ccc(S(=O)(=O)N2CCCC2)cc1[N+](=O)[O-]` was run?
A: -0.161

Q: For `CC1CCN(C(=O)c2ccc(COc3ccccc3Cl)o2)CC1`, which z-score is on record?
A: -0.787

Q: With `O=C(Nc1ccccc1Cl)c1cccc(NS(=O)(=O)c2ccccc2)c1` as the molecule, how does the z-score read?
A: -0.436

Q: How did the z-score turn out when `Cc1cc(C(=O)COc2ncnc3sccc23)c(C)n1C1CC1` was run?
A: -0.349

Q: For `COc1ccc(-c2noc(-c3ccccc3-c3ccccc3)n2)cc1OC`, which z-score is on record?
A: 0.544

Q: `COc1ccc(S(=O)(=O)Nc2nnc(CC(C)C)s2)cc1` was tested. Which z-score did it give?
A: -0.287

Q: How did the z-score turn out when `Cc1ccc2nc(-c3ccccn3)oc2c1` was run?
A: 0.326

Q: How did the z-score turn out when `CCCCC(=O)NC(c1ccc(OC)c(OC)c1)c1c(O)ccc2ccccc12` (centres undefined) was run?
A: -0.0347

Q: `C/C(=N\Nc1nc(N)cc(Cl)n1)c1cccc([N+](=O)[O-])c1` was tested. Which z-score did it give?
A: -0.101

Q: How did the z-score turn out when `CCc1nnc(NC(=O)C2CCC2)s1` was run?
A: -0.429

Q: For `COc1ccc(N2CCN(C(=O)c3ccc(NS(=O)(=O)c4ccccc4)cc3)CC2)cc1`, which z-score is on record?
A: -0.449

Q: Which z-score does the source give for `CCOC(=O)C1C(c2cccs2)NC(=O)N(C)C1(O)C(F)(F)F` (centres undefined) here?
A: -0.437

Q: `CC(C)N1C(=O)C2C(C(=O)NCc3ccccc3)C3C=CC2(O3)C1C(=O)NC(C)(C)C` (centres undefined) was tested. Which z-score did it give?
A: -0.153

Q: For `CC(=O)N(C)c1ccc(OCC(O)COc2ccc(N(C)C(C)=O)cc2)cc1`, which z-score is on record?
A: -0.144

Q: How did the z-score turn out when `CCc1ccc(NC(=O)C/C(C)=N/NC(=O)OCc2ccc(OC)cc2)cc1` was run?
A: -0.139

Q: How did the z-score turn out when `CC(NC(=O)C1C(=O)N(CCO)C2(C)CC1c1ccccc1O2)c1ccccc1` (centres undefined) was run?
A: -0.22

Q: For `O=C(CN1C(=O)NC2(CCCCC2)C1=O)Nc1ccc(N2CCOCC2)cc1`, which z-score is on record?
A: 0.0382

Q: With `COc1ccccc1S(=O)(=O)Cc1ccc(C(=O)NCCN2CCCC2)o1` as the molecule, how does the z-score read?
A: 0.238

Q: With `O=C(NCc1ccccn1)c1coc(=O)c(Br)c1` as the molecule, how does the z-score read?
A: -1.32

Q: Which z-score does the source give for `Cc1cc(-c2n[nH]c(=S)n2Cc2ccco2)n(C)n1` here?
A: -0.171

Q: `Cc1cc(NCCCN(C)C)n2nc(-c3cccs3)cc2n1` was tested. Which z-score did it give?
A: -0.0105

Q: For `COc1ccc(C(=O)NCC2OCCc3ccccc32)c(O)c1` (centres undefined), which z-score is on record?
A: 0.0231

Q: With `CCOc1ccc(C(=O)Nc2c3c(nn2-c2ccc(C)cc2)CS(=O)C3)cc1OCC` (centres undefined) as the molecule, how does the z-score read?
A: 0.0188

Q: `O=C(O)CCC(=O)Nc1cccc(C(=O)Nc2cccc(Cl)c2)c1` was tested. Which z-score did it give?
A: -0.326

Q: How did the z-score turn out when `CCCc1[nH]n(-c2ccc(F)cc2)c(=O)c1C=Nc1cccc(F)c1` was run?
A: 0.195

Q: How did the z-score turn out when `Cc1ccc(Cl)cc1N1CCN(C(=O)C2CCN(S(=O)(=O)c3cccnc3)CC2)CC1` was run?
A: 0.308

Q: For `Cc1ccc(C(=O)C(=S)N2CCOCC2)cc1`, which z-score is on record?
A: -0.209

Q: Which z-score does the source give for `CCCCCCn1c(CN2CCCCC2C)nc2c1c(=O)n(C)c(=O)n2C` (centres undefined) here?
A: -0.304

Q: With `CCOC(=O)C1CCN(C(=O)CCc2c(C)nc3c(-c4ccc(F)cc4)c(C)nn3c2C)CC1` as the molecule, how does the z-score read?
A: -0.801

Q: For `Cc1csc(NC(=O)CSc2nnc3ncccn23)n1`, which z-score is on record?
A: 0.932

Q: How did the z-score turn out when `Cc1cccc(N2C(=O)CC(N3CCN(c4cccc(C(F)(F)F)c4)CC3)C2=O)c1` (centres undefined) was run?
A: 0.337

Q: For `Cc1ccc(S(=O)(=O)N2CCOCC2)cc1NC(=O)COC(=O)c1ccc(OCc2c(C)noc2C)cc1`, which z-score is on record?
A: -0.346

Q: `O=C(C1CCCN1S(=O)(=O)c1cccc2cccnc12)N1CCc2ccccc2C1` (centres undefined) was tested. Which z-score did it give?
A: -0.115

Q: With `CN(C)S(=O)(=O)c1ccc(Nc2nc(C3CC3)nc3c2nnn3Cc2ccccc2Cl)cc1` as the molecule, how does the z-score read?
A: -0.0504

Q: `Cc1ccc(Cl)cc1N1CCN(C(c2ccc(C#N)cc2)c2nnnn2C2CCCC2)CC1` (centres undefined) was tested. Which z-score did it give?
A: -0.969

Q: For `CC(C)CC(=O)N1CCC(O)(CS(=O)(=O)Cc2ccc(Cl)cc2)CC1`, which z-score is on record?
A: 0.234

Q: With `COc1cc(C2N(c3cccc(Cl)c3)C(=O)C3CCCN32)cc(OC)c1OC` (centres undefined) as the molecule, how does the z-score read?
A: -0.543

Q: `CCOC(=O)c1c(NC(=O)CSc2nnc(-c3cccc(C)c3)n2CC)sc(C(C)=O)c1C` was tested. Which z-score did it give?
A: -0.735

Q: Which z-score does the source give for `Nc1ccc(/C=C/C(=O)c2ccco2)cc1` here?
A: 0.559

Q: Which z-score does the source give for `CC(C)(C)C(=O)Cn1c(NCCO)nc2ccccc21` here?
A: -0.265

Q: How did the z-score turn out when `O=C(N/N=C/c1ccccn1)c1ccc(Br)cc1` was run?
A: 1.82

Q: `CCOC(=O)c1c(NC(=O)CC)sc(C(=O)N2CCCCC2)c1C` was tested. Which z-score did it give?
A: -0.285

Q: Which z-score does the source give for `CCc1cc2c(=O)n(N)c(CCC(=O)O)nc2s1` here?
A: -0.0861

Q: `Cc1occc1-c1nnc(SCC(=O)N2CCN(c3ccc(F)cc3)CC2)n1C` was tested. Which z-score did it give?
A: 0.0114

Q: Which z-score does the source give for `Cc1oc(C(=O)O)cc1CSCc1ccoc1C(=O)O` here?
A: -0.104

Q: `COC(=O)CC(=O)CSc1nc2c(cc1C#N)CCC2` was tested. Which z-score did it give?
A: -0.106

Q: With `CCN(CC(=O)NC(C)C)C(=O)CCNC(=O)c1ccc(Cl)cc1` as the molecule, how does the z-score read?
A: -0.244

Q: With `Cc1ccc(N(C(=O)c2nsc(Cl)c2Cl)C(C(=O)NC2CCCC2)c2ccc(O)cc2)cc1C` (centres undefined) as the molecule, how does the z-score read?
A: -0.249

Q: With `COc1ccc(/C=C2/SC(=O)N(CC(=O)Nc3cc(C)on3)C2=O)cc1OC` as the molecule, how does the z-score read?
A: -0.00401

Q: Which z-score does the source give for `CCCCOC(=O)c1ccc(NC(=O)C(=O)NCC2CCCO2)cc1` (centres undefined) here?
A: -0.0254

Q: With `CCC1Oc2ccc(C)cc2N(CC(=O)NCC2COc3ccccc3O2)C1=O` (centres undefined) as the molecule, how does the z-score read?
A: -0.0996

Q: How did the z-score turn out when `CCCOc1ccc(/C=C/C(=O)Nc2ccc([N+](=O)[O-])cc2C)cc1` was run?
A: -0.157

Q: Which z-score does the source give for `COc1ccc(Cn2c(CCC(=O)Nc3ccc(C)c(C)c3)nc3cccnc32)cc1` here?
A: -0.0657

Q: Which z-score does the source give for `CC(=O)Nc1ccc(NC(=O)c2ccccc2Sc2ccc([N+](=O)[O-])cc2Cl)cc1` here?
A: -0.764

Q: `CCc1cccc(C)c1NC(=S)NCc1cccn1C` was tested. Which z-score did it give?
A: -0.189

Q: How did the z-score turn out when `O=C(NC1CCCC1)C(c1ccccc1)N(Cc1ccc2c(c1)OCO2)C(=O)Cc1cccs1` (centres undefined) was run?
A: -0.25

Q: `COc1ccc(C2/C(=C(/O)c3ccccc3)C(=O)C(=O)N2c2ccccn2)c(OC)c1` (centres undefined) was tested. Which z-score did it give?
A: -0.664

Q: With `COC(=O)c1cc(OC)c(OC)cc1NC(=O)Nc1ccc(OC)cc1OC` as the molecule, how does the z-score read?
A: active: 3.48

Q: `O=C(Oc1ccc(Cl)c2cccnc12)c1ccco1` was tested. Which z-score did it give?
A: 0.951

Q: With `CCc1ccc(NC(=O)C2CCCCC2C(=O)O)cc1` (centres undefined) as the molecule, how does the z-score read?
A: 0.156

Q: How did the z-score turn out when `Cc1ccc(CNC(=O)C2C3C=CC(C3)C2C(=O)O)cc1` (centres undefined) was run?
A: -0.366

Q: How did the z-score turn out when `O=C(Nc1ccccc1)c1ccccc1O` was run?
A: -0.321

Q: Which z-score does the source give for `COc1cc(NC(=S)NCCc2c[nH]c3ccccc23)c(OC)cc1Cl` here?
A: -0.146

Q: For `CCCCOC(=O)n1c(=S)oc2cc(Cl)ccc21`, which z-score is on record?
A: -0.00789

Q: For `Cc1cc(C)cc(C(=O)NCC(=O)OCc2cc([N+](=O)[O-])cc3c2OCOC3)c1`, which z-score is on record?
A: -0.324

Q: With `COC(=O)c1ccc(NC(=O)c2ccccc2N(C)S(=O)(=O)c2ccccc2)cc1` as the molecule, how does the z-score read?
A: -0.256

Q: `C=CCn1c(SCC(=O)c2cccs2)nc2sc(C)cc2c1=O` was tested. Which z-score did it give?
A: -0.445
